Out of some 310,000 compounds screened, about 2,200 (0.71%) showed an effect of 50% or more. Effects have a minus sign here. The list shows a part of the results.
Target: human ether-à-go-go-related gene (hERG) potassium channel (human, UniProt Q12809)
Assay: primary screen, population patch clamp on CHO cells stably expressing hERG

Sequence of human ether-à-go-go-related gene (hERG) potassium channel (Q12809 whole entry, looked up): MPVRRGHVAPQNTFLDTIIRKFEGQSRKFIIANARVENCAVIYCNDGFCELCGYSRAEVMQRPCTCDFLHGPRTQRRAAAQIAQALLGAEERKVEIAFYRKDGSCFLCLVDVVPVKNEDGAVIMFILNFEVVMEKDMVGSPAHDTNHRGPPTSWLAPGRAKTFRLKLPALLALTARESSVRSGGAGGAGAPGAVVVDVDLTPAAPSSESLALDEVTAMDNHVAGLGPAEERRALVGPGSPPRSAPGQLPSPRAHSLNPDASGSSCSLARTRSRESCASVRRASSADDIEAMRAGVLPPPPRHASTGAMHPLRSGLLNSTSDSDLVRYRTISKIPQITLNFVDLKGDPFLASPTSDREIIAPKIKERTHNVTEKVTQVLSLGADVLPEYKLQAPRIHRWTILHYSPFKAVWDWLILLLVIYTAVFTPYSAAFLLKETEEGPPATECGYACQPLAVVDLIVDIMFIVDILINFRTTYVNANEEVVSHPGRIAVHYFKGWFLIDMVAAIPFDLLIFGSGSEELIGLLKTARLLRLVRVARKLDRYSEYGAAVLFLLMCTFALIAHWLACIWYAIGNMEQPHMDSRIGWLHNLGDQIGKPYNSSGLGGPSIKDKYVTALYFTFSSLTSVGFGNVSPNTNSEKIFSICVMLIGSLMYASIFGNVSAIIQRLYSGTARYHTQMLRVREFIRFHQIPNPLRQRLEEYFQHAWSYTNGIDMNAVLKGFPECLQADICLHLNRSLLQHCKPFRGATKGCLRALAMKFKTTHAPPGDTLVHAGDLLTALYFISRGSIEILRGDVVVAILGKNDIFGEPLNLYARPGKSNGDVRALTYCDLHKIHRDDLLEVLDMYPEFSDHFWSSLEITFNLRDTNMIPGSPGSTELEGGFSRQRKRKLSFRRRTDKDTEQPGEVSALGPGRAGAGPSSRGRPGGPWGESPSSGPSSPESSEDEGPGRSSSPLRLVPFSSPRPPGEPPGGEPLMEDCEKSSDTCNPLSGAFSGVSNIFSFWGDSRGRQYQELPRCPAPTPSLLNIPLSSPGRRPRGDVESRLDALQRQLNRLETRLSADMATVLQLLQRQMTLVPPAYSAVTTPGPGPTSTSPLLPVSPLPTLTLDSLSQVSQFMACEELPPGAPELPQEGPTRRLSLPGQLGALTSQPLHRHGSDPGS

Compound | hERG current change (%, negative = inhibition) at 1uM [%]
Cn1c(C(=O)NCc2cccnc2)cc2sc(Cl)cc21 | -7.81
COc1cccc(OCC(=O)NC2CCCCC2)c1 | 8.09
COc1ccc(C(=O)/C(=C\c2sccc2C)c2nc3ccccc3o2)cc1 | 8.11
COc1ccc(N(C(=O)CCl)C(C(=O)NCCc2ccccc2)c2cccs2)cc1Cl (stereo not drawn) | 9.55
Cc1ccc2nc3c(c(C(=O)OCC(=O)N(C)C4CCS(=O)(=O)C4)c2c1)CCCC3 (stereo not drawn) | 6.9
COc1ccc(NC(=O)c2cc(-c3ccco3)on2)cc1 | 10.5
CN(C)c1ccc(-c2nc3n(n2)C(c2cccnc2)C2=C(CC(C)(C)CC2=O)N3)cc1 (stereo not drawn) | -3.74
CCCCn1c(SCC(=O)Nc2cc(C)on2)nnc1-c1cccnc1 | 3.95
O=C(CN1CCN(Cc2ccccc2)CC1)Nc1cccc(Br)c1 | -16.7
CC1CCN(c2ccccc2NC(=O)c2ccc(C#N)cc2F)CC1 | 3.67
CN1C(C(=O)Nc2ncccn2)=C(O)c2ccccc2S1(=O)=O | 6.7
CN(C)C(CNC(=O)c1cccnc1Sc1ccccc1)c1ccco1 (stereo not drawn) | 1.11
CCCc1nn(-c2cc(Cl)ccc2OC)c2c1C(=O)CCC2 | 10.8
Cc1ccc2c(c1)COc1c3ccc(C(=O)NCC4CC4)cc3nn1-2 | 2.92
O=C(Nc1nccs1)Oc1ccccc1 | 7.21
O=C1CCCc2oc3ccc(O)cc3c21 | 2.65
CC(=O)Nc1ccc(NC(=O)CSc2nnc(-c3ccccc3)n2Cc2ccc3c(c2)OCO3)cc1 | -2.18
Cc1ccc(C2N(C)c3ccccc3-c3nc4ccccc4n32)o1 (stereo not drawn) | 7.19
C=CCN1C(=O)NC(=O)/C(=C/c2cccn2C)C1=O | 4.87

Compound | hERG current change (%, negative = inhibition) at 1uM [%]
Nc1nnnn1/N=C/c1cc(Br)ccc1O | 11.9
O=C(c1ccc(F)c(S(=O)(=O)N2CCOCC2)c1)N(CCc1ccccc1)Cc1ccccc1 | -10.2
CC(=O)N1CCN(C(=O)c2ccc(S(=O)(=O)Nc3ccccc3F)cc2)CC1 | 12.9
COC(=O)[C@@H](N)CS.Cl | 15.6
CCN(C(=O)COC(=O)c1cc(S(=O)(=O)N(C)C)ccc1Cl)C1CCS(=O)(=O)C1 (stereo not drawn) | 14.7
COc1ccc(CN(C)C(C)C(=O)NC2CCCc3ccccc32)cc1 (stereo not drawn) | -10.9
O=C(Cc1ncc(C(F)(F)F)cc1Cl)NCCc1ccccn1 | 9.02
CN(C(=O)COC(=O)c1ccc(=O)n(Cc2ccccc2)n1)c1ccccc1 | 3.66
CC(C)CSc1nc2ccccc2c(=O)[nH]1 | 1.81
COc1ccc(NC(=O)CSc2nnc(Cc3cccn3C)n2-c2ccc(OC)cc2)cc1 | 2.51
CCN(c1ccccc1)S(=O)(=O)c1ccc(Cl)c(NC(=O)CSc2nncs2)c1 | -3.09
COc1ccc(C(=O)OCC(=O)c2ccc[nH]2)cc1 | 5.17
Cc1nc2sc(C(c3ccc(Cl)cc3)N3CC(C)OC(C)C3)c(O)n2n1 (stereo not drawn) | 9.08
CCSc1nnc(Nc2ccccc2)s1 | 7.72
Cc1ccc(C)c(NC(=O)COC(=O)c2ccc3ccccc3n2)c1 | -1.42
CCOC(=O)c1cccc(NS(=O)(=O)c2ccc(NC(C)=O)cc2)c1 | 4.77
Cc1nc(NCCO)c(C#N)c2c1COC(C)(C)C2 | 1.43
O=C1CC(c2ccccc2)CC(=O)C1=CN1CCCC1 (stereo not drawn) | 15.6
CC(C)CNC(=O)c1ccccc1NC(=O)CN(c1ccccc1)S(=O)(=O)N(C)C | 8.42

Compound | hERG current change (%, negative = inhibition) at 1uM [%]
O=C(CCc1c[nH]c2ccccc12)NCCOc1ccccc1 | 6.46
CCCCN(C)C(=S)Nc1ccsc1C(=O)OC | 9.15
Cc1cc2oc(=O)cc(-c3cc4ccccc4o3)c2cc1O | 18.8
CC(=O)NC(CCS(C)(=O)=O)C(=O)Nc1cc(C)ccc1C (stereo not drawn) | 6.99
O=C(NNC(=O)C1CCN(S(=O)(=O)c2ccc(Cl)cc2)CC1)c1ccccc1O | 6.85
O=C(CN1N=C(c2ccccc2)CCC1=O)NCc1ccco1 | 10.7
O=C(CNC(=O)N1CC(=O)Nc2ccccc21)NCc1ccccc1 | 15.1
CC(C)(C)c1ccc(C(=O)NCC(=O)O)cc1 | 16.1
CCC(c1nnc(SCC(=O)Nc2c(F)cccc2F)n1Cc1ccccc1)N(C)C (stereo not drawn) | 12.3
Cc1cc2ncn(-c3ncccc3[N+](=O)[O-])c2cc1C | 13.9
COC(=O)C1=C(C)NC(=O)/C1=C\c1cc(C)n(-c2cccc(C)c2)c1C | 13.1
CCC(=O)N1CCc2cc(Br)cc(S(=O)(=O)NCCCN(C)Cc3ccccc3)c21 | 5.84
O=C(NCc1cccnc1)/C(=C\c1ccc(-c2ccc(Br)cc2)o1)S(=O)(=O)c1ccccc1 | 12.2
C=CCNC(=O)NC(=O)CSc1nc2cc([N+](=O)[O-])ccc2n1-c1cccc(C(F)(F)F)c1 | 13.5
CC1CCCN(C(=O)c2ccc(S(=O)(=O)N3CCC(c4nc5ccccc5s4)CC3)cc2)C1 (stereo not drawn) | 1.19
CCc1nc2ccccc2c(C(=O)Oc2cccc3cccnc23)c1C | 9.15
CC(C)CN(C(=O)COC(=O)CCc1c[nH]c2ccccc12)c1c(N)n(Cc2ccccc2)c(=O)[nH]c1=O | -3.99
Cc1nc(NCc2cccnc2)c2c3c(sc2n1)CC(C)CC3 (stereo not drawn) | 2.85
Nc1ncnc2c1ncn2[C@H]1C[C@H](O)[C@@H](COP(=O)(O)O)O1 | 8.97

Reference: paper PMC4336329 (PLoS ONE, 2015)
